According to PubChem BioAssay AID1508649 (National Center for Advancing Translational Sciences (NCATS), 2021):
Among all 43,000 compounds or so, about 830 (1.9%) were called active. The inconclusive results got no clear call from the source; some entries with a clear call stand among them for comparison. How the source made its calls: active means clear falling dose curves in both reporters; inconclusive means both reporters move, but less clearly or upward; inactive means either reporter flat; the % is the NLuc reporter signal. Potencies of inconclusive entries are left out as doubtful fits.

Assay: Cell-based coincidence reporter assay to measure PMP22 gene transcription in S16 Pmp22-F2sN cells - Primary screen
Conditions: S16 Pmp22-F2sN Schwann cells (luciferase reporters placed in the Pmp22 gene), FLuc/NLuc coincidence luminescence, 24 h; measured here: NLuc reporter readout, at 57.5 µM (top of the series)
How it was run: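 Reporter cells (S16 Pmp22-F2sN, 500–1,000 per well) exposed to compounds for 24 h, 37C, 5% CO2; lysis with FLuc read after 10 min, then Stop&Glo and NLuc read after 10 min.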
Potency means the concentration at half of the fitted maximal effect; tags describe the fitted curve by direction and shape.

Row | SMILES | Potency
1 | CCOc1ccc(NC(=O)c2c(Nc3ccccc3C)sc(C(=O)c3ccc(Cl)cc3)c2N)cc1 | inconclusive [phenotype inactive, single point]
2 | Cc1nn2c(=O)cc(COC(=O)c3ccc(NC(=O)c4cccc(Br)c4)cc3)nc2s1 | inconclusive [phenotype inactive, single point]
3 | CCOC(=O)c1cc2c(=O)n3ccccc3nc2n(Cc2ccco2)c1=NC(=O)c1ccc(C)c(C)c1 | inconclusive [phenotype inactive, partial curve]
4 | COc1ccc(-c2cn3nc(N4CCCC(C(=O)Nc5cccc(Cl)c5C)C4)sc3n2)cc1 (stereo not drawn) | inconclusive [phenotype inactive, single point]
5 | CN(C)CCNC(=O)c1ccc2c(c1)N(Cc1ccccc1)C(=O)c1ccccc1S2(=O)=O | inconclusive [phenotype inactive, single point]
6 | CC(C)C(=O)NCC1(N(C)C)CCCCC1 | inactive
7 | Cc1cc(N2CCN(c3cccc(C(F)(F)F)c3)CC2)n2nc(-c3ccccc3)nc2n1 | inactive
8 | COc1ccc(NC(=O)c2ccco2)cc1NC(=O)COc1ccc(Cl)c(C)c1 | inconclusive [phenotype inactive, single point]
9 | CCc1ccc(NC(=O)c2ccc(F)c(S(=O)(=O)NCc3ccc(Cl)c(Cl)c3)c2)cc1 | inconclusive [phenotype inactive, single point]
10 | Cc1ccc(Cl)cc1-n1ncc2c(NCCCc3ccccc3)ncnc21 | inconclusive [phenotype inactive, single point]
11 | CC(Oc1ccc(Br)cc1)C(=O)Nc1ncn[nH]1 (stereo not drawn) | inactive
12 | O=C(O)c1ccc2nc(-c3cc4cccc(O)c4oc3=O)[nH]c2c1 | inactive
13 | COc1ccc(N2CCN(c3csc4ccc(Cl)cc4c3=O)CC2)cc1 | inconclusive [phenotype inactive, single point]
14 | CNS(=O)(=O)c1cn(CC(=O)N2CCN(c3cccc(C)c3C)CC2)cc1S(=O)(=O)NC | inactive
15 | O=C(CCCN1C(=O)C(c2ccccc2)Oc2cccnc21)Nc1ccccc1C(F)(F)F (stereo not drawn) | inconclusive [phenotype inactive, single point]
16 | CCOC(=O)N1CCN(Cc2nc3cc(NC(=O)c4ccccc4[N+](=O)[O-])ccc3n2C(C)C)CC1 | active: 11.2 µM
17 | CCc1cccc(C)c1Nc1c(-c2ccccc2)nc2sccn12 | inconclusive [phenotype inactive, single point]
18 | CCOC(=O)c1c(C)[nH]c(C)c1S(=O)(=O)N1CCC(C(=O)N2CCN(c3ccccc3)CC2)CC1 | inactive
19 | O=C(NCc1ccccc1Cl)C1CCCN(S(=O)(=O)c2cccc3nsnc23)C1 (stereo not drawn) | inconclusive [phenotype inactive, single point]
20 | CCC(=O)N1CCc2cc(S(=O)(=O)NC(CC(C)C)C(=O)NCCc3cccc(C)c3)ccc21 (stereo not drawn) | inactive
21 | COc1ccc(NC(=O)Cn2c(=O)n(-c3ccccc3)c(=O)c3c4c(sc32)CCCC4)c(OC)c1 | inactive

Row | SMILES | Potency
22 | CCn1c(=O)c2cc(C(=O)NCCCOC)sc2c2ccccc21 | inconclusive [phenotype inactive, partial curve, poor fit]
23 | CSc1cccc(Nc2cc(C(=O)NCCc3ccc(Cl)cc3)c3ccccc3n2)c1 | inconclusive [phenotype inactive, single point]
24 | COc1ccc(N2CCN(C(=O)c3cnn(-c4ccc(F)cc4)c3-n3cccc3)CC2)cc1 | inconclusive [phenotype inactive, single point]
25 | COc1ccc(NC(=O)CCn2c(=O)c3cccn3c3cccnc32)cc1Cl | inactive
26 | CCc1ccc(NC(=O)c2ccc(F)c(S(=O)(=O)N3CCC4(CC3)OCCO4)c2)cc1 | inconclusive [phenotype inactive, single point]
27 | Cc1cc(C)cc(NC(=O)c2ccc3c(c2)nnn3C2CCCC2)c1 | inconclusive [phenotype inactive, full curve, poor fit]
28 | CCS(=O)(=O)c1ccc(O)c(Nc2cc(C)nc(SC)n2)c1 | inconclusive [phenotype inactive, single point]
29 | O=C(CSc1oc(-c2ccco2)nc1S(=O)(=O)c1ccc(Br)cc1)c1ccccc1 | inconclusive [phenotype inactive, single point]
30 | Cc1ccc(S(=O)(=O)C(CNC(=O)c2ccc(F)c(F)c2)c2ccco2)cc1 (stereo not drawn) | inactive
31 | COc1ccc(Oc2c(C(F)(F)F)oc3c(CN4CCCC(C)C4)c(O)ccc3c2=O)cc1 (stereo not drawn) | inconclusive [phenotype inactive, single point]
32 | Cn1c(=O)c2cc(C(=O)NCCCN3CCN(c4cccc(Cl)c4)CC3)sc2c2ccccc21 | inactive
33 | Cc1nn(-c2ccccc2)c(-n2cccc2)c1C(=O)NCCc1ccc(Cl)cc1 | inconclusive [phenotype inactive, single point]
34 | CCN(c1ccccc1C)S(=O)(=O)c1ccc(N2CCCCS2(=O)=O)cc1 | inconclusive [phenotype inactive, single point]
35 | CCCCCn1c(=O)[nH]c2cc(C(=O)NCc3ccc(Cl)cc3)ccc2c1=O | inactive
36 | COc1ccc(OC)c2sc(N3CCN(C(=O)c4ccc5c(c4)CCCC5)CC3)nc12 | inconclusive [phenotype inactive, single point]
37 | CCc1ccc(N2CC(c3nc4ccccc4n3Cc3ccccc3C)CC2=O)cc1 (stereo not drawn) | inconclusive [phenotype inactive, single point]
38 | CCOc1ccc(CCNC(=O)CCn2c(=O)c3cccn3c3ccc(F)cc32)cc1 | inconclusive [phenotype inactive, single point]
39 | NC(=O)C1CCN(c2ncnc3c2cnn3-c2cccc(Cl)c2)CC1 | inactive
40 | CN(C(=O)CSc1nc2ccc(NC(=O)c3ccccc3)cc2s1)c1ccccc1 | inconclusive [phenotype inactive, single point]
41 | O=C(Cn1c(-c2cccs2)cc2ccccc21)NCCCN1CCN(c2ccc(F)cc2)CC1 | active: 10 µM
42 | CC(=O)c1ccc(NC(=O)CSc2nnc(NC(=O)NC3CCCCC3)s2)cc1 | inactive

Row | SMILES | Potency
43 | CCOc1ccc(C2C=C(c3cccc(OC)c3)Nc3nnnn32)cc1 (stereo not drawn) | inactive
44 | Cc1ccc(-c2nc3ccccn3c2Nc2ccc3c(c2)OCCO3)s1 | inconclusive [phenotype inactive, full curve, poor fit]
45 | CCN(C(=O)C1CCC(CNS(=O)(=O)c2cccc3nsnc23)CC1)c1ccccc1 (stereo not drawn) | inconclusive [phenotype inactive, single point]
46 | CCCn1c(=N)c(C(=O)NCc2cccnc2)cc2c(=O)n3cccc(C)c3nc21 | inconclusive [phenotype inactive, partial curve]
47 | Cc1ccc(S(=O)(=O)N(CC(O)Cn2c3ccccc3c3ccccc32)c2cccc(C(=O)N(C)C)c2)cc1 (stereo not drawn) | inconclusive [phenotype inactive, single point]
48 | Cc1nc(Oc2ccccc2C)c2oc3ccccc3c2n1 | inconclusive [phenotype inactive, single point]
49 | COc1ccc(NC(=O)CSc2c3c(nc4ccc(Cl)cc24)CCCC3)cc1Cl | active: 18.9 µM
50 | COc1cccc(CNC(=O)CCc2nnc3n(CC(C)C)c(=O)c4ccccc4n23)c1 | inactive
51 | COc1ccccc1Cn1c(CNS(=O)(=O)c2ccc3c(c2)CCCC3)nc2cccnc21 | inconclusive [phenotype inactive, single point]
52 | O=C(Cn1c(=O)n(-c2ccc(Cl)cc2)c(=O)c2c3c(sc21)CCC3)c1ccc(F)cc1 | inactive
53 | CCC1CCCCN1CCCNC(=O)c1ccc2c(c1)N(Cc1ccccc1F)C(=O)c1ccccc1S2(=O)=O (stereo not drawn) | active: 8.91 µM
54 | Cc1ccc(C)c(NC(=O)CCc2nc(-c3ccc(C(C)(C)C)cc3)no2)c1 | inconclusive [phenotype inactive, single point]
55 | Cc1oc2ccc(O)c(CN3CCCCCC3)c2c1C(=O)Nc1cccc(Cl)c1C | inconclusive [phenotype inactive, single point]
56 | CCOC(=O)C(CC)Sc1ncnc2sc3c(c12)CCCC3 (stereo not drawn) | inconclusive [phenotype inactive, partial curve, poor fit]
57 | Cc1ccc(OCCSc2nc3ccc(NC(=O)c4ccc5c(c4)OCO5)cc3s2)cc1 | active: 13.5 µM
58 | O=C(NCCCN1CCN(c2ccc(F)cc2)CC1)c1cc2c(Cl)nc3ccccc3c2s1 | active: 14.1 µM
59 | Cc1cc(=O)n(Cc2ccc(F)cc2Cl)c2c1c(C)nn2C | inactive
60 | Cc1nnc(N2CCCC(C(=O)NCCN(C)C)C2)c2nn(-c3ccccc3)c(C)c12 (stereo not drawn) | inactive
61 | Cc1cc(C)cc(NC(=O)c2ccc3oc(=O)c(S(=O)(=O)c4ccc(F)cc4)cc3c2)c1 | active: 11.2 µM
62 | Cc1cccc(NC(=O)Cn2nnc(C(=O)NCc3ccco3)c2N)c1 | inconclusive [phenotype inactive, single point]
63 | CC(=O)Nc1ccc(-c2nnc3n(Cc4ccc(C)cc4)c(=O)c4ccccc4n23)cc1 | inactive
